This is an account of results in a collection of fitness landscapes (doi:10.1038/s41467-024-54723-y).

The full ranking holds about 18,000 sequences; the median of “TetR repression strength (sort-seq, GFP reporter)” is about 0.23, and the highest 2% start at about 0.68. The list shows a part of the results.

Sequence of UniProt P04483 (P04483 whole entry): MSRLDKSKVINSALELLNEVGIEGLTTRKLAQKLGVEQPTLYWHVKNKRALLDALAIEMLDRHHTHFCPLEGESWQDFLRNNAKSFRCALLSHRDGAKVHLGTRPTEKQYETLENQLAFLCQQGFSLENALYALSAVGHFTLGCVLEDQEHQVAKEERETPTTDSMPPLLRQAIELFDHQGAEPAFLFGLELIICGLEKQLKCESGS

For the assay, the target named is TetR (class B, Tn10) (UniProt P04483). Kind of assay: TetR repression strength (sort-seq, GFP reporter) (relative to tetO2 = 1); higher = stronger repression. To be noted: E. coli. A digest of the protocol:
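E. coli SIG10-MAX carried a low-copy plasmid library with eight randomized operator positions between a constitutive promoter and sfGFP, with TetR constitutively expressed. Cells grew 5 h at 37 °C in LB with 50 µg/mL chloramphenicol, then 10^6 cells were FACS-sorted into 13 fluorescence bins, each Illumina-sequenced. Repression strength is the top bin index plus one minus the read-weighted mean bin, divided by the wild-type operator value. Three independent transformations; variants with ≥30 reads in all replicates and CV ≤0.5 were averaged.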
Turning to TCCCGATGAGTTCAGGAGA, the TetR repression strength was found to be 0.24. In turn, TCCCACGGAGTTGTCGAGA returned a TetR repression strength of 0.233.

As to TCCCTCTTAGTATTAGAGA, the TetR repression strength amounted to 0.321. With TCCCTAGCAGTATTGGAGA, the TetR repression strength is 0.502. In turn, TCCCGGCGAGTGAGGGAGA returned a TetR repression strength of 0.222. With TCCCCTCAAGTGGGAGAGA, the TetR repression strength stood at 0.136. Regarding TCCCGCACAGTCCCTGAGA, the TetR repression strength worked out at 0.402. The sequence TCCCGTTGAGTGTATGAGA registered a TetR repression strength of 0.181. With TCCCACGTAGTTTGGGAGA, the TetR repression strength was found to be 0.174. With TCCCGGAAAGTAAAGGAGA the figure was 0.377; with TCCCTGGTAGTTTGCGAGA, 0.191. Regarding TCCCAGCTAGTAATGGAGA, the TetR repression strength turned out to be 0.361. As for TCCCGGCGAGTGGCCGAGA, the TetR repression strength amounted to 0.265. For the sequence TCCCAGGGAGTACTCGAGA, the TetR repression strength was 0.275.

In the case of TCCCGATGAGTGCGAGAGA, the TetR repression strength amounted to 0.286. Take TCCCACCGAGTGCCGGAGA: the TetR repression strength came to 0.213. The sequence TCCCTATGAGTGTTAGAGA showed a TetR repression strength of 0.626. TCCCCGTCAGTTATGGAGA returned a TetR repression strength of 0.134.

As to TCCCCCAGAGTGGTGGAGA, the TetR repression strength came out at 0.149. To TCCCAGCAAGTAGGAGAGA belongs 0.066. With TCCCCCGCAGTAAACGAGA the figure was 0.125; with TCCCTTGGAGTAGATGAGA, 0.397; with TCCCGTTGAGTTGACGAGA, 0.167. TCCCCCACAGTGGGGGAGA showed a TetR repression strength of 0.368. Sequence TCCCGTTGAGTTATTGAGA came in with a TetR repression strength of 0.415. In turn, TCCCGCAGAGTGAGTGAGA returned a TetR repression strength of 0.0138. As to TCCCGTAAAGTATTTGAGA, the TetR repression strength was determined as 0.322.

Turning to TCCCTCGAAGTGGTCGAGA, the TetR repression strength was 0.212. Take TCCCCAGAAGTTAGCGAGA: the TetR repression strength is 0.104. To TCCCTATCAGTTGAGGAGA belongs 0.618; to TCCCTGTAAGTGCTGGAGA, 0.324. With TCCCCTCTAGTGATCGAGA the figure was 0.36; with TCCCCTTGAGTTTGTGAGA, 0.323; with TCCCAGCTAGTGAACGAGA, 0.379. Sequence TCCCTCTGAGTTTAGGAGA gave a TetR repression strength of 0.215.

Consider TCCCCCTTAGTTGGGGAGA, for which the TetR repression strength was 0.131. As to TCCCATCAAGTACGGGAGA, the TetR repression strength came to 0.184. TCCCAGCAAGTAACGGAGA: the TetR repression strength came out at 0.211. The sequence TCCCGCGCAGTTAGGGAGA had a TetR repression strength of 0.18.

Take TCCCTGATAGTAAGTGAGA: the TetR repression strength was 0.138. On to TCCCGTGGAGTTGCGGAGA, for which the TetR repression strength was 0.148.

For TCCCGGGTAGTACTGGAGA, the TetR repression strength amounted to 0.177. As for TCCCGAGAAGTGGGGGAGA, the TetR repression strength was 0.315. To TCCCTTGCAGTGCTCGAGA belongs 0.0699; to TCCCGTTGAGTGACAGAGA, 0.438. Regarding TCCCTTAGAGTGCGAGAGA, the TetR repression strength came out at 0.0346. Sequence TCCCTTAGAGTGAGCGAGA gave a TetR repression strength of 0.125. TCCCGGACAGTACCTGAGA yielded a TetR repression strength of 0.266. TCCCTTAAAGTGGAGGAGA: the TetR repression strength was 0.248.

In the case of TCCCAAGTAGTAGGAGAGA, the TetR repression strength was 0.484. As for TCCCATTGAGTTATTGAGA, the TetR repression strength is 0.544. To TCCCGTCTAGTAGCGGAGA belongs 0.276; to TCCCCTGCAGTTTCCGAGA, 0.35; to TCCCGGGTAGTAACTGAGA, 0.063.

TCCCTTCTAGTGGTGGAGA showed a TetR repression strength of 0.312. TCCCCCAGAGTGTGTGAGA showed a TetR repression strength of 0.106.
